# Source: PMC10732398 (PLOS Pathogens, 2023)
# B1: soluble recombinant ⍺4β7 (receptor)
# chain 1: not shown
# chain 2: ELDAKIPSTGDATEWRNPHLSMLGSCQPAPSCQKCILSHPSCAWCKQLNFTASGEAEARRCARREELLARGCPLEELEEPRGQQEVLQDQPLSQGARGEGATQLAPQRVRVTLRPGEPQQLQVRFLRAEGYPVDLYYLMDLSYSMKDDLERVRQLGHALLVRLQEVTHSVRIGFGSFVDKTVLPFVSTVPSKLRHPCPTRLERCQSPFSFHHVLSLTGDAQAFEREVGRQSVSGNLDSPEGGFDAILQAALCQEQIGWRNVSRLLVFTSDDTFHTAGDGKLGGIFMPSDGHCHLDSNGLYSRSTEFDYPSVGQVAQALSAANIQPIFAVTSAALPVYQELSKLIPKSAVGELSEDSSNVVQLIMDAYNSLSSTVTLEHSSLPPGVHISYESQCEGPEKREGKAEDRGQCNHVRINQTVTFWVSLQATHCLPEPHLLRLRALGFSEELIVELHTLCDCNCSDTQPQAPHCSDGQGHLQCGVCSCAPGRLGRLCECSVAELSSPDLESGCRAPNGTGPLCSGKGHCQCGRCSCSGQSSGHLCECDDASCERHEGILCGGFGRCQCGVCHCHANRTGRACECSGDMDSCISPEGGLCSGHGRCKCNRCQCLDGYYGALCDQCPGCKTPCERHRDCAECGAFRTGPLATNCSTACAHTNVTLALAPILDDGWCKERTLDNQLFFFLVEDDARGTVVLRVRPQEKGADH
# notes: also called soluble α4β7
# Biological target: T1, CD4 D1D2 protein, 23 kD (aa 1-183) (human, UniProt P01730 partial chain)
# T1 construct: also called sCD4 (D1D2); sCD4 D1D2; source: gift from Dr. E. Berger
# Assay: SPR; Biacore 3000; soluble ⍺4β7 passed over immobilised ligand; HBS pH 7.4, 1 mM MnCl2, 0.005% Tween-20, 25°C, 25 μl/min
# Details: both partners purified
binder,measurement,value
B1,Kd,3.57 nM
